Data from PubChem BioAssay AID651813 (National Center for Advancing Translational Sciences (NCATS), 2012).
The campaign covered roughly 2,100 compounds. About 1,100 (52%) were called active. The set was probably picked from earlier hits. This list was built around the results that the source calls inconclusive (neither active nor inactive); the mix of calls is not that of the screen. The call rests on the fitted dose curve; in most records, active means well fitted inhibition curve with a large enough effect; inconclusive means small, poorly fitted or top-dose-only effect; inactive means no such curve, though single readings can be large or run the other way. Potencies of inconclusive entries are left out as doubtful fits.

Biological target: DNA dC->dU-editing enzyme APOBEC-3G (Homo sapiens) (UniProt Q9HC16)
Sequence of UniProt Q9HC16 (Q9HC16 whole entry, looked up): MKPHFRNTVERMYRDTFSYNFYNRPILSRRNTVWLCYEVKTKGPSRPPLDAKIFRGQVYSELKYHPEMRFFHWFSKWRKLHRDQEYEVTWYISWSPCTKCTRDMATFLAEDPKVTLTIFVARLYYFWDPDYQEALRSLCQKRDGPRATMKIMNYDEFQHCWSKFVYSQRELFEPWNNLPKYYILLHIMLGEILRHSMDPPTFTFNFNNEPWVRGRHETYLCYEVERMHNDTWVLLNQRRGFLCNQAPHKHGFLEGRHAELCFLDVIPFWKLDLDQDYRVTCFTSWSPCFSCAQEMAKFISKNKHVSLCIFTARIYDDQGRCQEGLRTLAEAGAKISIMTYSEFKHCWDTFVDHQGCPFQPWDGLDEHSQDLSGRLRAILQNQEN
Assay: qHTS for inhibitors of Vif-A3G interactions: Cherry picks counterscreen;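 further: hits raise yellow fluorescence by blocking Vif-driven A3G-eYFP degradation; nearly all actives have a fitted effect of over 70% in size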;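 on max response: max response given as percent of control signal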
Details: HeLa A3G-eYFP + Vif (tagged APOBEC3G with the HIV-1 protein that degrades it), eYFP fluorescence, 24 h
In short: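 HeLa cells stably expressing A3G-eYFP and Vif were treated for 24 h at 37 deg C with compounds at several concentrations; yellow fluorescence (Ex 488 nm, Em 500-530 nm) read by Acumen Explorer, MG132 as positive control.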
Potency means the concentration at half of the fitted maximal effect; tags describe the fitted curve by direction and shape.

**Q.** Which max response does the source give for `O=C(Nc1nc2ccccc2s1)c1ccc([N+](=O)[O-])o1` here?
**A.** inactive: -24.2%

**Q.** Which Potency does the source give for `CC(NC(=O)/C(C#N)=C/c1ccc([N+](=O)[O-])o1)c1ccccc1` (stereo unspecified) here?
**A.** inconclusive [inhibitor, single point]

**Q.** How did the Potency turn out when `CC(C)CN(CC(C)C)S(=O)(=O)c1ccc(C(=O)Nc2sc3c(c2C(N)=O)CCN(C(C)C)C3)cc1` was run?
**A.** active: 18.4 µM

**Q.** Which Potency does the source give for `C=C1C(=O)O[C@H]2C1CC[C@@](C)(O)C13C=CC(C)(C21)C1(C3)C(=O)O[C@@H]2C3C(C)=CCC3[C@](C)(O)C[C@H](OC(C)=O)C21` (stereo partly specified) here?
**A.** inconclusive [inhibitor, single point]

**Q.** Which Potency does the source give for `COc1cc(/C=C2\CC(C(C)(C)C)C/C(=C\c3cc(OC)c(OC)c(OC)c3)C2=O)cc(OC)c1OC` (stereo unspecified) here?
**A.** inconclusive [inhibitor, single point]

**Q.** For `COCCCNc1nc2ccccc2nc1NS(=O)(=O)c1ccccc1`, which Potency is on record?
**A.** inconclusive [inhibitor, single point]

**Q.** With `C/C(=N\Nc1nc(C)cc(-c2ccccc2)n1)c1ccc(F)cc1` as the compound, how does the max response read?
**A.** inactive: -5.07%

**Q.** For `O=C(Cn1c(=O)n(Cc2ccco2)c(=O)c2sc3ccccc3c21)Nc1ccccc1C(F)(F)F`, which Potency is on record?
**A.** inconclusive [inhibitor, partial curve]

**Q.** How did the Potency turn out when `CCc1ccc(-c2cc(C(F)(F)F)n3nc(C(=O)Nc4cnn(Cc5ccc(C)cc5)c4)cc3n2)s1` was run?
**A.** inconclusive [inhibitor, single point]

**Q.** `Cc1cc(NC(=O)c2ccco2)cc(-c2nc3cc(Cl)ccc3o2)c1O` was tested. Which Potency did it give?
**A.** inconclusive [inhibitor, single point]

**Q.** How did the Potency turn out when `COc1ccccc1N1C(=O)C2C(C(=O)c3ccccc3)=NN(c3ccc(C)cc3)C2C1=O` (stereo unspecified) was run?
**A.** inconclusive [inhibitor, single point]

**Q.** Which Potency does the source give for `COc1ccc(Cn2c(C)nc3c(c2=O)c2nc4ccccc4nc2n3Cc2ccco2)cc1` here?
**A.** inconclusive [inhibitor, single point]

**Q.** `O=c1[nH]c2ccccc2n2c(C(F)(F)F)nnc12` was tested. Which Potency did it give?
**A.** active: 20.6 µM

**Q.** With `N#C/C(=C\c1ccc(Cl)cc1)c1nc2ncccc2[nH]1` as the compound, how does the max response read?
**A.** inactive: -13.6%

**Q.** With `COc1cc(/C=C2\SC(=S)N(CCC(=O)Nc3ccccn3)C2=O)cc(OC)c1OC` as the compound, how does the Potency read?
**A.** inconclusive [inhibitor, single point]

**Q.** For `CCCC1=Nc2cc(C(=O)NCc3ccco3)ccc2Sc2ccccc21`, which Potency is on record?
**A.** inconclusive [inhibitor, single point]

**Q.** With `O=C(/C=C/c1ccco1)NC(=S)Nc1ccc(N2CCCC2)cc1` as the compound, how does the Potency read?
**A.** inconclusive [inhibitor, single point]

**Q.** `O=C(c1ccccc1)c1c2c(cc3sc4ccccc4[n+]13)-c1cccc3cccc-2c13` was tested. Which Potency did it give?
**A.** inconclusive [inhibitor, single point]

**Q.** With `COc1ccc(-c2csc(-c3ccc(O)cc3)n2)cc1` as the compound, how does the Potency read?
**A.** active: 5.59 µM

**Q.** `Cc1cccc(CSc2cccc3cccnc23)c1` was tested. Which max response did it give?
**A.** inactive: -11.2%

**Q.** Which max response does the source give for `CCN(CC)c1nc(C)c(C(=S)Nc2cc([N+](=O)[O-])ccc2Cl)s1` here?
**A.** inactive: -7.53%

**Q.** For `COc1cccc(NC(=O)c2sc3nc(C)c(C(=O)Nc4ccc(C)cc4C)c(-c4ccco4)c3c2N)c1`, which Potency is on record?
**A.** inconclusive [inhibitor, single point]

**Q.** `Cc1ccc(NC(=O)CSc2nc3ccc(Nc4nc(N5CCOCC5)nc(N5CCOCC5)n4)cc3s2)cc1` was tested. Which Potency did it give?
**A.** inconclusive [inhibitor, single point]

**Q.** How did the Potency turn out when `CCOC(=O)c1ccc(NC(=O)CSc2nc(-c3ccc(F)cc3)cc(C(F)(F)F)c2C#N)cc1` was run?
**A.** active: 9.2 µM

**Q.** `Cc1ccc(S(=O)(=O)Nc2cc(-c3nn(C)c(=O)c4ccccc34)ccc2N2CCOCC2)cc1` was tested. Which Potency did it give?
**A.** active: 15.8 µM

**Q.** With `CCOC(=O)/C(C#N)=N\Nc1cc(Cl)ccc1OC` as the compound, how does the Potency read?
**A.** inconclusive [inhibitor, single point]

**Q.** `COc1ccc(-c2cc(-c3cccs3)nc3sc(C#N)c(N)c23)cc1` was tested. Which Potency did it give?
**A.** inconclusive [inhibitor, single point]

**Q.** How did the max response turn out when `COc1ccc(NC(=S)Nc2ncccc2C)c(OC)c1` was run?
**A.** inactive: -0.005%

**Q.** With `COc1ccc(-c2cc(-c3nnc(COC(=O)c4ccncc4)o3)c3ccccc3n2)cc1OC` as the compound, how does the max response read?
**A.** inactive: -0.16%

**Q.** With `Cc1c(C(=O)OC/C(O)=C(\C#N)c2nc3ccccc3[nH]2)oc2ccccc12` as the compound, how does the Potency read?
**A.** inconclusive [inhibitor, single point]

**Q.** For `O=C(Nc1ccc(Cl)cc1)Nc1ccon1`, which max response is on record?
**A.** inactive: -27.2%

**Q.** For `CC(=O)Nc1cccc(-c2ccnc3c2CC(C)(C(=O)Nc2cccc(C(C)=O)c2)O3)c1` (stereo unspecified), which Potency is on record?
**A.** inconclusive [inhibitor, partial curve]

**Q.** `CCOc1cc(Br)cc(/C=C2\SC(=Nc3ccccc3)NC2=O)c1O` was tested. Which max response did it give?
**A.** inactive: -7.55%

**Q.** For `O=S(=O)(Nc1ccc(C(O)(C(F)(F)F)C(F)(F)F)cc1)c1ccc(Cl)c2nonc12`, which Potency is on record?
**A.** inconclusive [inhibitor, partial curve, poor fit]

**Q.** Which Potency does the source give for `CS(=O)(=O)Nc1cccc(C2=NN(S(C)(=O)=O)C(c3ccc4c(c3)OCO4)C2)c1` (stereo unspecified) here?
**A.** inconclusive [inhibitor, partial curve]

**Q.** With `N#C/C(=C/c1ccc(N2CCOCC2)o1)C(=O)NC1CCCCC1` as the compound, how does the Potency read?
**A.** active: 16.4 µM

**Q.** For `N#CC(C(=O)NCc1ccccc1)c1nc2ccccc2nc1N1CCCC1` (stereo unspecified), which Potency is on record?
**A.** inconclusive [inhibitor, partial curve]

**Q.** With `CCc1ccc(N=Nc2ccc(O)c3[nH]cnc23)cc1` as the compound, how does the Potency read?
**A.** active: 7.31 µM

**Q.** For `Cc1ccc(-n2nc3c(N4CCCC(C(=O)NCc5ccccc5C)C4)nnc(C)c3c2C)cc1` (stereo unspecified), which max response is on record?
**A.** inactive: -1.78%

**Q.** `Cc1cccc(-n2c(N)c(-c3nc4ccccc4n3C)c3nc4ccccc4nc32)c1` was tested. Which max response did it give?
**A.** inactive: -1.87%

**Q.** With `COc1ccc(S(=O)(=O)Nc2ccccc2-c2nc3ccccc3[nH]c2=O)cc1` as the compound, how does the Potency read?
**A.** inconclusive [inhibitor, single point]

**Q.** For `CCN(CC)c1ccc(/C=N/NC(=S)NC)c(O)c1`, which Potency is on record?
**A.** inconclusive [inhibitor, partial curve, poor fit]

**Q.** `COC(=O)c1cnc(Nc2cc(C)ccc2OC)c2ccccc12` was tested. Which Potency did it give?
**A.** inconclusive [inhibitor, single point]

**Q.** Which Potency does the source give for `N#Cc1ccccc1NC(=O)CSc1nc(-c2ccccc2)cc(C(F)(F)F)c1C#N` here?
**A.** inconclusive [inhibitor, partial curve]

**Q.** How did the Potency turn out when `Cc1ccc(C(=O)NC(=C(Cl)Cl)S(=O)(=O)c2ccccc2)cc1` was run?
**A.** inconclusive [inhibitor, single point]

**Q.** Which Potency does the source give for `N#C/C(=C/c1ccc2c(c1)OCO2)C(=O)Nc1ccc(O)cc1` here?
**A.** inconclusive [inhibitor, single point]

**Q.** For `CC1(C)Cc2nc3sc4c(SCC(=O)NCc5ccco5)ncnc4c3cc2CO1`, which Potency is on record?
**A.** inconclusive [inhibitor, partial curve, poor fit]

**Q.** For `Cn1c(-c2ccccc2)cc2c3no[n+]([O-])c3ccc21`, which Potency is on record?
**A.** inconclusive [inhibitor, single point]

**Q.** With `N#CC1CC(c2ccccc2)Nc2cc(Cl)ccc2N1` (stereo unspecified) as the compound, how does the Potency read?
**A.** inconclusive [inhibitor, single point]

**Q.** For `CCN(CC)c1ccc(NC(=O)c2ccc(=O)[nH]c2)cc1S(=O)(=O)Nc1ccc(OC)cc1`, which Potency is on record?
**A.** inconclusive [inhibitor, single point]

**Q.** With `N#CCSc1ccccc1NC(=O)COc1ccc(-c2nnco2)cc1` as the compound, how does the Potency read?
**A.** active: 12.5 µM

**Q.** `CCOC(=O)c1[nH]c(C)c(C(=O)Nc2ccccc2C)c1C` was tested. Which Potency did it give?
**A.** active: 6.27 µM

**Q.** Which Potency does the source give for `O=C(Nc1cc(Cl)ccc1-n1cncn1)c1ccc([N+](=O)[O-])s1` here?
**A.** inconclusive [inhibitor, single point]

**Q.** For `C[C@]1(O)CC(=O)C=C[C@H]1Nc1ccccc1`, which Potency is on record?
**A.** inconclusive [inhibitor, single point]

**Q.** Which max response does the source give for `CCOC(=O)CN1C(=O)S/C(=C/c2ccc(N3CCCCC3)o2)C1=O` here?
**A.** inactive: 55%

**Q.** For `COCc1cc(C)nc(SCC(=O)Nc2ccc3[nH]c(=O)[nH]c3c2)c1C#N`, which max response is on record?
**A.** inactive: -18.1%

**Q.** How did the max response turn out when `Cn1c(=O)c(N)c2c3c(c(Br)ccc31)C(=O)c1ccccc1-2` was run?
**A.** inactive: 44.6%

**Q.** With `c1cc(SC2CCCCC2)cc(-c2nc3cnccn3c2NC2CCCCC2)c1` as the compound, how does the max response read?
**A.** inactive: 17.4%

**Q.** `CCCN(C(=O)CSc1n[nH]c(-c2ccc(OC)cc2)n1)c1c(N)n(Cc2ccccc2)c(=O)[nH]c1=O` was tested. Which Potency did it give?
**A.** inconclusive [inhibitor, single point]

**Q.** How did the Potency turn out when `C/C(=N/N=C(\C)c1ccccc1O)c1ccccc1O` was run?
**A.** inconclusive [inhibitor, single point]

**Q.** `O=C(OC12CC3CC(CC(C3)C1)C2)c1ccc(NCc2cc(O)ccc2O)cc1` was tested. Which Potency did it give?
**A.** inconclusive [inhibitor, single point]

**Q.** With `Cc1cc(NC(=O)N2CC=C(c3c[nH]c4ccccc34)CC2)ccc1Br` as the compound, how does the Potency read?
**A.** inconclusive [inhibitor, single point]

**Q.** `Oc1ccc(/C=N\Nc2nncc(-c3ccccc3)n2)cc1` was tested. Which Potency did it give?
**A.** inconclusive [inhibitor, partial curve, poor fit]

**Q.** How did the max response turn out when `CCS(=O)(=O)N1CCc2cc(C(=O)N3CCN(c4cccc(C(F)(F)F)c4)CC3)ccc21` was run?
**A.** inactive: -3.11%

**Q.** `COc1ccc(S(=O)(=O)N2CCN(C(=O)c3ccc([N+](=O)[O-])o3)CC2)cc1` was tested. Which max response did it give?
**A.** inactive: -0.426%

**Q.** How did the Potency turn out when `NC(=O)c1c(NC(=O)c2ccccc2)sc2c1CCN(Cc1ccccc1)C2` was run?
**A.** active: 15.8 µM
